Laboratory results as given in PubChem BioAssay AID463173 (ICCB-Longwood Screening Facility, Harvard Medical School, 2010).
Out of some 52,000 compounds screened, about 4,300 (8.3%) were called active. Rule as the data show it: active = survival mostly below about 52% (no sharp cut-off); inactive = mostly above about 56%. The list shows a part of the results.

These compounds were tested on DeltatarO mutant (assay: S. aureus survival, RN4220 and DeltatarO strains – OD600, teichoic acid synthesis inhibitors, primary screen (AID 463173)). Conditions: S. aureus RN4220 wild type/DeltatarO growth, OD600, 18 h, stronger effect = lower value, screened at 18.75 µg/mL (by protocol).

| SMILES | survival |
| --- | --- |
| CCN(CC)CCn1c(=N)n(CCOc2ccccc2Cl)c2ccccc21 | inactive: 59% |
| Cc1cccc2cc(CN(C(=O)c3ccncc3)C3CCCC3)c3nnnn3c12 | inactive: 90% |
| O=C(CN1C(=O)CC(c2ccco2)Sc2ccccc21)Nc1cccc(C(F)(F)F)c1 (stereo not drawn) | inactive: 103% |
| CC1CCN(S(=O)(=O)c2cc(C(=O)NCc3ccc(N(C)C)cc3)n(C)c2)CC1 | inactive: 93% |
| O=C(Nc1cccc(C(F)(F)F)c1)c1cccs1 | inactive: 95% |
| CC(C)c1ccc(S(=O)(=O)c2cn(CC(=O)Nc3ccc(F)cc3)c3ccccc3c2=O)cc1 | inactive: 68% |
| O=C(CSc1nc2c(c(=O)[nH]1)CCCC2)Nc1ccccc1C(F)(F)F | inactive: 58% |
| COc1ccc(S(=O)(=O)Nc2cccc(-c3ccc(N4CCCCCC4)nn3)c2)cc1F | inactive: 94% |
| CCc1ccc(CNC(=O)c2cnc(N3CCCCC3)c3ccccc23)cc1 | inactive: 94% |
| COc1ccc(CCNC(=O)C(=O)Nc2ccc(C)c(C)c2)cc1 | inactive: 75% |
| Cc1ccccc1CNC(=O)c1ccc(NC(=O)N2CCCCc3ccccc32)cc1 | inactive: 80% |
| COc1cc(CNCCSc2nnnn2C)ccc1OCc1ccccc1C | inactive: 56% |
| Cc1c(CN(C)C(=O)c2cc(-c3ccccc3)nc3ccc(Br)cc23)cnn1C | active: 30% |
| Cc1oc2ccc(NS(=O)(=O)c3ccc(F)cc3)cc2c1C(=O)O | inactive: 193% |
| Cc1ccc(N2C(=O)SC(N(CC(=O)O)c3ccccc3)C2=O)cc1 (stereo not drawn) | inactive: 102% |
| Cc1ccc(-c2n[nH]c3c2C(c2ccccc2Cl)N(c2ccc(C(=O)O)cc2)C3=O)cc1 (stereo not drawn) | inactive: 103% |
| CCCOc1ccc(C2=NC(c3ccncc3)=Nc3ccc(C)cc3N2)cc1 | inactive: 55% |
| Cc1ccc(S(=O)(=O)c2c(Nc3ccc(C)c(C)c3)sc(C(=O)c3ccc4c(c3)OCO4)c2N)cc1 | inactive: 125% |
| CSc1ncc(Cl)c(C(=O)Nc2c(C(=O)Nc3cccc(C)c3)oc3ccccc23)n1 | inactive: 86% |
| CNc1nc(C)c(C(=O)OCC(=O)OC)s1 | inactive: 81% |

| SMILES | survival |
| --- | --- |
| Cc1ccccc1-c1noc(-c2ccc(N3CCC(C)CC3)c([N+](=O)[O-])c2)n1 | inactive: 55% |
| CCc1ccccc1NC(=O)Cn1c(=O)n(Cc2ccccc2)c(=O)c2c(C)c(C(=O)N(C)C)sc21 | inactive: 67% |
| Cc1ccccc1CN1c2ccccc2-c2nc(SCC(=O)c3ccc(Cl)cc3)ncc2S1(=O)=O | inactive: 81% |
| Cc1csc2nc(-c3cccc(NS(C)(=O)=O)c3)cn12 | inactive: 88% |
| Cc1ccc(NC(=O)CCN2CC(C)CC(C)C2)cc1 (stereo not drawn) | inactive: 106% |
| CCOc1ccc(NC(=O)Cn2c(=O)cc(C)c3c(C)nn(C)c32)cc1 | inactive: 76% |
| CCOC(=O)c1c(NC(=S)NC(=O)c2c(I)cnn2C)sc2c1CCC(C)C2 (stereo not drawn) | inactive: 83% |
| Cc1ccc(-c2nc(C)c(CCNC(=O)C(=O)Nc3cc(C)ccc3C)s2)cc1 | inactive: 90% |
| Cc1csc2nc(-c3ccc(NS(=O)(=O)c4cccc(F)c4)cc3)cn12 | inactive: 88% |
| CC(=O)NC1(NC(C)=O)CC(c2ccccc2)N(C)CC1C (stereo not drawn) | inactive: 69% |
| NNC(=O)c1nnn(-c2nonc2N)c1CN1CCCC1 | inactive: 96% |
| CC(C)c1nc2ccc(C(=O)NCCCN3CCN(c4ccccc4)CC3)cc2o1 | inactive: 120% |
| O=C(CN1CCN(Cc2ccc(F)cc2Cl)C1=O)NCCc1ccc(Cl)cc1 | inactive: 54% |
| CCOc1ccc(C(=O)Nc2ccc3oc(-c4cccc5ccccc45)nc3c2)cc1 | active: 60% |
| O=C1CN(C(=O)c2ccc(S(=O)(=O)N3CCCC3)cc2)C(c2ccccc2)c2cc(Cl)ccc2N1 (stereo not drawn) | inactive: 71% |
| O=C1CS/C(=N\N=C/c2ccccc2)N1 | inactive: 98% |
| COc1ccc(OC)c(NC(=O)N2CC(C)Oc3ccc(C)cc32)c1 (stereo not drawn) | inactive: 55% |
| Cc1ccc(C(=O)c2cn(CC(=O)NCc3ccccc3)c3nc(C)ccc3c2=O)cc1 | inactive: 95% |
| COc1ccc(C(=O)Nc2nc(-c3nnn(-c4ccc(F)cc4F)c3C)ns2)cc1 | inactive: 122% |
| COc1cccc(C(=O)Nc2ccc3nc4n(c(=O)c3c2)CCCCC4)c1 | inactive: 90% |

| SMILES | survival |
| --- | --- |
| Cc1ccc(O)c(Nc2nc3ccccc3c3nncn23)c1 | inactive: 83% |
| Cc1cc(C)n(CC(=O)Nc2cc(F)ccc2F)c(=O)c1C#N | inactive: 81% |
| O=C1c2ccccc2C(=O)N1CCN1C(=O)c2ccccc2C1=O | inactive: 78% |
| O=C(Nc1c(C(=O)c2ccccc2)oc2ccccc12)c1ccc(F)cc1 | inactive: 62% |
| CC1=C(C(N)=O)C(c2ccccc2F)n2nc(-c3ccc(Cl)cc3)nc2N1 (stereo not drawn) | inactive: 80% |
| COC(=O)c1cc(S(=O)(=O)N2CCN(c3cc(Cl)ccc3C)CC2)c[nH]1 | active: 12% |
| O=S(=O)(NCC(c1ccco1)N1CCOCC1)c1ccc(F)cc1 (stereo not drawn) | inactive: 75% |
| Cc1cc(C)c2oc(C(=O)Nc3c(C(=O)c4ccccc4)oc4ccccc34)cc(=O)c2c1 | inactive: 55% |
| Cc1ccc(CNC(=O)Cn2cc3c(n2)-c2c(oc(C(=O)N4CCOCC4)c2C)CC3)cc1 | inactive: 80% |
| COc1ccccc1CNc1ncnc2c1c(-c1ccccc1)cn2-c1ccc(Br)cc1 | inactive: 80% |
| Cc1ccc(C(=O)NCCC(C)C)cc1NC(=O)c1nsc2ccccc12 | inactive: 73% |
| COc1cc2c(=O)c(C(=O)c3ccc(F)cc3)cn(Cc3cccc(F)c3)c2cc1OC | inactive: 85% |
| CCN(CC)c1ccc(NC(=O)Cn2c3ncccc3c(=O)n2-c2ccccc2)c(C)c1 | inactive: 98% |
| COc1ccc(Cl)cc1NC(=O)CSc1nnc2[nH]c(=O)cc(C)n12 | inactive: 90% |
| CCOc1ccc(-c2nc(C(N)=O)c3c(n2)n(-c2ccc4c(c2)OCO4)c(=O)n3CC)cc1 | inactive: 80% |
| COc1ccc(C2C=C(c3ccccc3)Nc3nc(NS(=O)(=O)c4ccc(C)cc4)nn32)cc1 (stereo not drawn) | inactive: 55% |
| CNC(=S)N1CCN(c2cccc(C)c2C)CC1 | inactive: 69% |
| Cc1c(C(=O)OC2CCCCC2)[nH]c2c1C(=O)CC(c1ccccc1)C2 (stereo not drawn) | inactive: 93% |
